Our source for the binding signal (normalized occupancy) values is article PMC4242493.

The other results are listed elsewhere or left out. The list includes weakly bound sequences.

The target of the assay is MaxL homodimer (UniProt P61244). Put plainly: universal protein-binding microarray (PBM). Conditions: PBS-based mixture, 10 nM His-tagged protein dimer, 2% milk, 200 ng/uL BSA, 50 ng/uL salmon testes DNA, 0.02% TX-100; detection with Alexa 488 anti-His …; high values mean tight binding; most listed sequences are background and not binding sites; double strand, one strand shown.
Sequence of UniProt P61244 (P61244 whole entry): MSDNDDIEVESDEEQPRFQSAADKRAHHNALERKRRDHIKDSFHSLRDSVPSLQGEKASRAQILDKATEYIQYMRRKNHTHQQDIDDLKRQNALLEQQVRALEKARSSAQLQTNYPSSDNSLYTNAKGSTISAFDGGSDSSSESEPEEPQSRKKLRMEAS
For TCAACAAA, the binding signal (normalized occupancy) worked out at 0.0803.
With CCGGCGGA, the binding signal (normalized occupancy) came to 0.0707.
Turning to CCAAGGCG, the binding signal (normalized occupancy) was 0.0739.
In the case of CACCTCAC it was 0.0869.
For the sequence ACCGTGAG, the binding signal (normalized occupancy) was 0.0742.
The same measure for CGGTGAGC: 0.0684; for AGAGGCCC: 0.0691.
Take GGTCGAAC: the binding signal (normalized occupancy) turned out to be 0.0698.
Regarding CTCCGCGC, the binding signal (normalized occupancy) amounted to 0.0692.
The same measure for ATGGTGGA: 0.0768.
The same measure for CAATAGTC: 0.0732; for GCCCGTTA: 0.0706; for CACGGTTC: 0.0767.
Turning to CCTTCGCC, the binding signal (normalized occupancy) stood at 0.0711.
In the case of CCTCGTAG it was 0.0748.
As for ACTTGAGC, the binding signal (normalized occupancy) was found to be 0.0721.
On to CAATGTCG, for which the binding signal (normalized occupancy) was found to be 0.0786.
Take CCCATCTC: the binding signal (normalized occupancy) stood at 0.0798.
Turning to AGTTCGGC, the binding signal (normalized occupancy) is 0.0685.
As to CAACACGA, the binding signal (normalized occupancy) stood at 0.0817.
Regarding TGGCCGAA, the binding signal (normalized occupancy) is 0.0707.
Regarding CCTTGGTA, the binding signal (normalized occupancy) is 0.0731.
As to GTATTTCA, the binding signal (normalized occupancy) is 0.0722.
The same measure for CTCCCGCA: 0.0776; for AATCATCA: 0.0786; for CACGTGCG: 0.641.
In the case of CCAACTAA, the binding signal (normalized occupancy) worked out at 0.0782.
The same measure for CGTCCCAC: 0.0771.
For the sequence CAAGCTGG, the binding signal (normalized occupancy) was 0.0721.
Consider GTACCGTA, for which the binding signal (normalized occupancy) stood at 0.075.
On to CCCTCTTA, for which the binding signal (normalized occupancy) was 0.0705.
On to CCCGGAAC, for which the binding signal (normalized occupancy) amounted to 0.0679.
In the case of AAAAAAGA, the binding signal (normalized occupancy) turned out to be 0.0729.
GGTCCCGA: the binding signal (normalized occupancy) was 0.0733.
The same measure for TCCGGACA: 0.0755; for CGCCGACA: 0.0744.
Consider AGTTTGGG, for which the binding signal (normalized occupancy) was 0.0716.
ACTCGACA: the binding signal (normalized occupancy) was determined as 0.0757.
In the case of ATACGTAA it was 0.0767; in that of AACACTAT, 0.082.
As for GCTACCCA, the binding signal (normalized occupancy) is 0.0757.
The same measure for AACATCCG: 0.0746.
As to ATTTGTGG, the binding signal (normalized occupancy) is 0.0793.
The same measure for AACCTAGA: 0.0755; for ACGGGTCT: 0.0823; for GCACTCGC: 0.0699.
In the case of AGTTGAAC it was 0.0762; in that of ATTTAGGC, 0.0782; in that of ACAATGCT, 0.0805.
With CCTTAATC, the binding signal (normalized occupancy) amounted to 0.0732.
On to CGAAATGA, for which the binding signal (normalized occupancy) was 0.068.
In the case of ATGAGCGG it was 0.0799.
For the sequence AGGGTATC, the binding signal (normalized occupancy) was found to be 0.0757.
CGTGACGC: the binding signal (normalized occupancy) is 0.0812.
The same measure for CACCGAAC: 0.073; for CCTCCTAC: 0.0749.
Consider CCTATACC, for which the binding signal (normalized occupancy) was determined as 0.0768.
With ACTGTCGA, the binding signal (normalized occupancy) was found to be 0.0731.
In the case of GAAGAAGC it was 0.0695.
For CTATCACC, the binding signal (normalized occupancy) was 0.0808.
Take CACCAGAG: the binding signal (normalized occupancy) is 0.0693.
For AAGGCTCA, the binding signal (normalized occupancy) was determined as 0.0715.
In the case of CATGGGGG it was 0.0995; in that of GGCCTAAC, 0.0765; in that of CTTCGACC, 0.066.
GGCTCGAA: the binding signal (normalized occupancy) was 0.0686.
As for ATCATGAG, the binding signal (normalized occupancy) was 0.09.
The same measure for GACACCAA: 0.0751; for AAAATGAT: 0.0822.
Turning to AATGAGTG, the binding signal (normalized occupancy) is 0.08.
As for ACACTCAG, the binding signal (normalized occupancy) stood at 0.0748.
In the case of CATCTGGC it was 0.0755.
In the case of GGGATCTA it was 0.0799; in that of TGCTGCCA, 0.0769; in that of CTAGAGAA, 0.0731.
For GCGTGACA, the binding signal (normalized occupancy) is 0.103.
AAGCGAAG: the binding signal (normalized occupancy) was determined as 0.0668.
As to CCTGTCCC, the binding signal (normalized occupancy) amounted to 0.0721.
The same measure for ATACGCAA: 0.0775.
For CGTCGCAC, the binding signal (normalized occupancy) came out at 0.0746.
In the case of AATGTACA it was 0.0818.
Take CACAGTAC: the binding signal (normalized occupancy) is 0.0755.
The same measure for GGCCCAAA: 0.0686.
Take CCTCACTC: the binding signal (normalized occupancy) is 0.075.
In the case of CGGGGATA it was 0.0797; in that of CATCCCAC, 0.0809.
The same measure for ATGAGGTC: 0.0876.
The same measure for CCATCCGA: 0.0852; for ACCGACAC: 0.0792; for GGGTCCAC: 0.0802.
Turning to AAGCCCGC, the binding signal (normalized occupancy) came to 0.0656.
The same measure for AGTTAGAG: 0.0767; for CATGGCTA: 0.0864; for CACTTCAC: 0.0766.
GAACATCA: the binding signal (normalized occupancy) amounted to 0.0813.
For GTCGAGGA, the binding signal (normalized occupancy) is 0.0733.
With CGATCCGA, the binding signal (normalized occupancy) was 0.0688.
In the case of GGATAAAA it was 0.0761; in that of CCCCTACA, 0.0778; in that of AACTACAA, 0.0724.
For CCTCTCAA, the binding signal (normalized occupancy) is 0.0706.
In the case of GCGTCCCA it was 0.0762.
In the case of CTCGGCAC it was 0.0791; in that of ACATAGAC, 0.0779; in that of AACAAGAA, 0.0753.
The same measure for GACGACTA: 0.077; for GTGAGAAA: 0.0796.
In the case of AAAAGACA, the binding signal (normalized occupancy) was determined as 0.0739.
Consider TGGGTCAA, for which the binding signal (normalized occupancy) turned out to be 0.0772.
In the case of TCCAACGA it was 0.0775.
In the case of AGGACACC it was 0.069; in that of GGTCCAAC, 0.0757; in that of CATGGATA, 0.0917.
In the case of CAATCTCA it was 0.0789; in that of AAGGGCGA, 0.0714; in that of CCCCAAGC, 0.0762.
With CTGCCCTA, the binding signal (normalized occupancy) was found to be 0.0679.
Take GGTCCCAC: the binding signal (normalized occupancy) stood at 0.0772.
Regarding CAGAACTA, the binding signal (normalized occupancy) was 0.0728.
Turning to ACCCCTTC, the binding signal (normalized occupancy) was found to be 0.0827.
Regarding CGGCCACA, the binding signal (normalized occupancy) is 0.075.
The same measure for GAAGCCGA: 0.0676; for AGAGCGAT: 0.0711.
In the case of GAATGCAC it was 0.0772; in that of AGTAGCTG, 0.0691; in that of CACCTATG, 0.0739.
In the case of AATTCACC it was 0.0742; in that of GCGGTCAA, 0.0762; in that of TATCATAA, 0.0897.
In the case of AAGGTATT, the binding signal (normalized occupancy) is 0.0755.
In the case of GTGTAGTA it was 0.0864; in that of AGCAAGGA, 0.0721.
The same measure for ACGTCATA: 0.0787; for CGTGCAGC: 0.0858.
With GAAGTATC, the binding signal (normalized occupancy) was found to be 0.0757.
As to TCGGGAAA, the binding signal (normalized occupancy) was found to be 0.0705.
For ATCTCGGC, the binding signal (normalized occupancy) was 0.0678.
The same measure for ATGGAGGC: 0.0802; for GCGAACCC: 0.0753.
The same measure for CATAAGGA: 0.0837.
The same measure for AAATTATA: 0.0808; for CGGCAATA: 0.0748.
With AAACGCCA, the binding signal (normalized occupancy) was determined as 0.0743.
The same measure for AAAGCATC: 0.0796.
In the case of AGATAGCA it was 0.0768; in that of CACCGAGC, 0.0669; in that of CTTTGCAA, 0.067.
Regarding ATAACGGC, the binding signal (normalized occupancy) came out at 0.0766.
For the sequence CGGTAAGA, the binding signal (normalized occupancy) was determined as 0.0693.
The same measure for CAGTGGCG: 0.0736; for AATCCCAT: 0.0807.
TCCCACAA: the binding signal (normalized occupancy) came to 0.0789.
In the case of CGGGACTC it was 0.0712.
In the case of AATACCGG it was 0.0681; in that of ATAGTCAC, 0.081.
The same measure for AAGCTGCA: 0.0738.
Consider CGGCGTAC, for which the binding signal (normalized occupancy) was determined as 0.0726.
Turning to ACGACCTA, the binding signal (normalized occupancy) worked out at 0.0691.
For GGCTTATA, the binding signal (normalized occupancy) stood at 0.0778.
The same measure for CCTACGAA: 0.0718.
The same measure for TACGCTAA: 0.0741.
As for AGACCTAT, the binding signal (normalized occupancy) is 0.0743.
The same measure for ATAGTACA: 0.0758; for CGTGACCC: 0.0843.
On to GCAAATGA, for which the binding signal (normalized occupancy) amounted to 0.0723.
In the case of CGATAGAG it was 0.0768; in that of TACAATCA, 0.0812; in that of CGTATACA, 0.0842.
The same measure for AATTTCGG: 0.0697.
In the case of CGAACAAG, the binding signal (normalized occupancy) was 0.0691.
On to CGAAGAGC, for which the binding signal (normalized occupancy) stood at 0.0649.
In the case of CCTGACAC it was 0.078.
In the case of ACGCAGGA it was 0.0789; in that of ATTCGGCG, 0.0711; in that of CATGAAAG, 0.0828.
For the sequence AATTTCCC, the binding signal (normalized occupancy) was determined as 0.0764.
The same measure for GACGGCGC: 0.0703; for CGACCAAA: 0.0712.
Consider AACATTCA, for which the binding signal (normalized occupancy) was 0.0761.
The same measure for CGACGTGC: 0.083; for CCGAATAC: 0.0774; for CGTGACTA: 0.0874.
The same measure for AACCGATT: 0.0695; for CAGGGCGA: 0.0755.
Turning to AATCACCC, the binding signal (normalized occupancy) amounted to 0.0785.
On to ATTCGGTC, for which the binding signal (normalized occupancy) amounted to 0.0761.
Consider GACAACAC, for which the binding signal (normalized occupancy) came to 0.0755.
Regarding CATTCTAC, the binding signal (normalized occupancy) is 0.0837.
The same measure for CGGCTCCC: 0.0671.
In the case of AACCCGTT it was 0.0707; in that of GCGAGATA, 0.077; in that of TCCATGCA, 0.0861.
The same measure for GTAACGAC: 0.0703; for AAAATATC: 0.0749.
On to AATCAAAT, for which the binding signal (normalized occupancy) turned out to be 0.0727.
In the case of CATGTCAA it was 0.082; in that of AACGGACA, 0.0769.
The same measure for CTACCCGA: 0.0741.
The same measure for ACACTTGC: 0.0791; for CTCATTGA: 0.0753; for ATAAGCTC: 0.0761.
As for CTATTGTA, the binding signal (normalized occupancy) is 0.0774.
The same measure for AGAATGAT: 0.0794.
The same measure for AAGACATG: 0.0912; for GTTACCGA: 0.0729; for GAACGCCC: 0.0688.
CAGAGTAG: the binding signal (normalized occupancy) came out at 0.0757.
In the case of GCACCCGA it was 0.0703; in that of CACTTTTC, 0.0739; in that of GTGGGCTA, 0.0797.
On to CCATGAGC, for which the binding signal (normalized occupancy) turned out to be 0.0818.
With CTGGGCCA, the binding signal (normalized occupancy) turned out to be 0.0738.
Take AGTGTAAC: the binding signal (normalized occupancy) came to 0.0735.
On to ATATGAAC, for which the binding signal (normalized occupancy) stood at 0.0832.
For the sequence CCGGTTTA, the binding signal (normalized occupancy) came to 0.0706.
In the case of ACTGGTAT it was 0.0789; in that of GCTTAAGC, 0.0692.
Consider GGCGGCTA, for which the binding signal (normalized occupancy) was 0.0675.
In the case of GTGAACTA it was 0.0787.
